Data as given in the supplement of paper PMC5499739.
In all, about 16,000 sequences were measured (“Z-score”: median about -0.37, highest 2% from about 3.1 on). Some of the results follow.

tested on: RBM10 RRM1-ZnF-RRM2 (GST-tagged construct); assay: RNAcompete 7-mer binding Z-score; higher = stronger binding preference
In short: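 Each heptamer motif was given a one-sided Z-score for enrichment across the probes that contained it. GST-tagged RBM10 constructs (20 pmol) were combined with 1.5 nmol of a designed pool of 241 399 RNAs of up to 41 nt, transcribed from microarray-derived DNA templates. Binding took place in 1 ml Hepes pH 7.8 buffer containing KCl, NaCl, glycerol, DTT, BSA and glutathione Sepharose beads for 30 min at 4°C. After four 2-min washes at 4°C, bound RNA was identified by microarray hybridisation.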

Sequence	RNAcompete 7-mer binding Z-score
GAGAACC	0.0058
CUGUGUC	-0.646
CCUGCCG	-0.759
UGGUCCU	-0.486
AAACUGC	-0.57
UAAUUAC	-0.559
AGAGACA	0.00944
UUUAAGC	-0.803
CCUAGCG	-0.559
AAAGAAC	-0.0343
AGUUUCU	-0.643
GUCGUGA	0.202
CUGCGCA	-0.573
CAGACUA	-0.428
CCCAAUA	-0.759
CACACAG	-0.133
CCGGCCA	-0.712
UCUGCCC	-0.752
CAGAAUC	-0.318
CAUCUUA	-0.708
CAUCCCU	-0.69
ACGCCAC	-0.675
CGCGAUA	-0.187
GGAUAUA	1.27
CAACAUA	-0.373

Sequence	RNAcompete 7-mer binding Z-score
GCCGCAA	-0.442
UGUGUUC	-0.588
UCGGCAU	-0.409
ACCACGA	-0.307
AGGCUUG	-0.253
CCAAUUC	-0.672
AUCCAUG	-0.307
UCUUUUG	-0.632
UAUGACG	-0.0925
CGUACUC	-0.562
AUGGGCA	2.7
AUACGCG	-0.377
CCGUACC	-0.588
CUACCGA	-0.562
AUAUUUC	-0.694
ACUAAAA	-0.643
CAUCCGC	-0.817
ACCUAAA	-0.81
GGCCUAC	-0.697
UCCACUU	-0.854
CUGUUAG	-0.526
CAUGCGC	-0.664
CGACAAU	-0.428
AUUGGUG	1.84
GGGGUGU	3.53

Sequence	RNAcompete 7-mer binding Z-score
ACUCACC	-0.77
GUUAGUC	-0.337
ACCUUCG	-0.861
CUAGCGA	-0.34
AGCGCGU	-0.136
AUGUGUU	-0.133
CCAAAUC	-0.639
CUAAUUU	-0.919
ACUGUCA	-0.715
AUGCUGU	-0.613
CUAAUUC	-0.795
UUAGAGC	-0.296
UCGCGGG	1.13
AAUGGGA	4.69
UGUAAAA	-0.118
GACGCGU	-0.0889
CCUGUCC	-0.817
ACUCUCG	-0.894
GUACUGA	0.00944
GAAAAGU	0.563
UGUCAGU	-0.0634
GGCACAC	0.108
CUCUCUG	-0.744
AUCGCAG	-0.3
CUACUCU	-0.803
